The source of these data is publication PMC10668032.

This is one part of the list. At the low end of the ranking, values are background and their order means little.

In this assay the target is SIX1-Q177R homeodomain (UniProt Q15475). The experiment in a line: universal protein binding microarray. Particulars: Universal all-10-mer PBM (8x60K, AMADID 030236), 300 nM GST-tagged protein, Alexa Fluor 488 anti-GST; buffer, salt, pH and temperature not stated; high values mean tight binding; most listed sequences are background and not binding sites; double strand, one strand shown.
As to CTGGGGTA, the binding signal is 0.194 E-score.
The result for AGAGCCCT reads -0.11 E-score.
As for CACGGTCG, the figure is 0.109 E-score.
As for ATGTAGCG, the figure is -0.225 E-score; as for CACGAGTC, 0.237 E-score.
For the sequence CTGTCTAC, the binding signal is -0.2 E-score.
As for CGTACGCA, the figure is 0.0917 E-score.
As for CCTTTCTC, the figure is -0.208 E-score; as for GAAAGGGA, -0.14 E-score; as for CCCACATC, -0.152 E-score.
The result for AAATATGA reads 0.00306 E-score.
Take AGCGAGCA: the binding signal was -0.142 E-score.
For CTAGTAAA, the binding signal is -0.0855 E-score.
On to AACCTTCT, for which the binding signal is -0.0835 E-score.
The result for CCCTTTGA reads 0.0135 E-score.
As for CACGAAAG, the figure is 0.16 E-score; as for GCGTGCTA, 0.151 E-score; as for GGGACAGA, -0.0712 E-score.
As for ATCGGGTC, the figure is 0.118 E-score; as for AGGAGATG, -0.0488 E-score.
CCTTGGGA: the binding signal is -0.0162 E-score.
Regarding ATATGACA, the binding signal was determined as 0.092 E-score.
The result for AAGGCGTA reads 0.0219 E-score; that for GACCTCCA, -0.224 E-score; that for ACTTCATC, -0.162 E-score.
The result for TCCACCCA reads -0.0413 E-score; that for CCTTTTTC, -0.233 E-score.
On to CAGTCGAA, for which the binding signal was -0.189 E-score.
For the sequence ACGAGGTA, the binding signal was -0.058 E-score.
The result for GATATATC reads -0.0568 E-score.
Regarding GTTTGTAA, the binding signal is -0.0562 E-score.
The result for AACCGCCT reads -0.107 E-score; that for GTGCAGAA, -0.00213 E-score; that for ATACTGAA, -0.0682 E-score.
The result for GAATGCCA reads -0.277 E-score; that for GGTTACTA, -0.0459 E-score; that for ATATCTCA, -0.037 E-score.
The result for AAGTAAGG reads 0.0669 E-score; that for GAACCAGA, -0.223 E-score.
Take GGACGCTA: the binding signal is 0.017 E-score.
As to CCTATAAG, the binding signal was 0.0586 E-score.
As for GGTTACCA, the figure is -0.137 E-score.
As for TGACTGAA, the binding signal was -0.145 E-score.
The result for GGCCCGAA reads -0.0868 E-score.
Regarding GTACGTAC, the binding signal is 0.0316 E-score.
The result for CAAACCTA reads -0.173 E-score; that for CCCACGGA, 0.161 E-score.
The result for CGGGAAAG reads -0.125 E-score.
As for GGCCATCA, the figure is -0.131 E-score; as for ATCCGTGA, 0.0106 E-score.
On to GCCTAAAC, for which the binding signal was -0.0818 E-score.
On to GATAATCC, for which the binding signal was found to be 0.0206 E-score.
As for CCCGTTCA, the figure is -0.0143 E-score; as for AGAGGGAT, 0.0015 E-score; as for AGAAGTGA, 0.0607 E-score.
As for CGCTACCG, the figure is -0.0582 E-score; as for AAGAGCCT, -0.187 E-score; as for ACTGTTGC, -0.0885 E-score.
As for AGTGCGGA, the figure is 0.161 E-score.
Turning to ACCAATGA, the binding signal was -0.0267 E-score.
The result for CTGACAGC reads -0.15 E-score.
The result for AAATGCTC reads -0.321 E-score; that for AAGGTAGG, 0.0049 E-score.
As for AGCGGACC, the figure is -0.228 E-score; as for CGGCCCAG, -0.124 E-score.
Turning to AATCACGC, the binding signal was -0.0813 E-score.
The result for CGGGTTGC reads -0.0298 E-score; that for AGGGTACC, 0.106 E-score; that for CTCACTGC, -0.175 E-score.
As for CTCGAGGC, the binding signal was 0.0234 E-score.
The result for CATGTAGC reads -0.118 E-score; that for CTGTCAAC, -0.0733 E-score.
With CTAATATC, the binding signal was -0.0841 E-score.
With CGCACCTC, the binding signal turned out to be 0.074 E-score.
For the sequence CGGCCTCC, the binding signal was -0.109 E-score.
Consider CCCGTGGC, for which the binding signal was 0.0777 E-score.
As for CCTACCCG, the figure is 0.183 E-score; as for TACCCTCA, 0.153 E-score; as for AGTGATGA, 0.022 E-score.
As for AAGGGATT, the figure is -0.169 E-score.
On to ATGAAATC, for which the binding signal was -0.0546 E-score.
The result for ATTTCCCC reads -0.213 E-score; that for ATCTCAAT, -0.258 E-score; that for AGAACTGC, -0.0404 E-score.
As for CCAGGCCC, the figure is -0.144 E-score; as for CCAACATC, -0.0552 E-score.
As for GATAGACC, the figure is -0.0537 E-score; as for AATTTGGT, -0.123 E-score; as for CGATATTC, -0.128 E-score.
As for CGATTCGA, the binding signal was -0.0415 E-score.
For ATCTAGAA, the binding signal was -0.116 E-score.
On to ACAATTAC, for which the binding signal is -0.065 E-score.
As for TATTGAAA, the figure is -0.124 E-score; as for TATGGGAA, 0.00536 E-score.
As for CAGGGGTC, the figure is 0.242 E-score; as for GGTTTACA, 0.16 E-score; as for ACCACATA, 0.0781 E-score.
As for ATCGCAAG, the figure is -0.118 E-score.
On to ACAAGGCC, for which the binding signal is -0.11 E-score.
Consider CTTGGACA, for which the binding signal stood at 0.0848 E-score.
The result for ACGTAGCC reads -0.0518 E-score.
The result for ACCAGCAC reads 0.206 E-score; that for TAGCGTCA, 0.122 E-score.
As for AAGGTTGT, the binding signal was -0.145 E-score.
As for AAGTACGC, the figure is -0.0304 E-score; as for TAGATTGA, -0.102 E-score; as for GAGGCAGA, -0.14 E-score.
As for CAATCTAA, the figure is -0.2 E-score; as for TCGTGCCA, -0.0599 E-score; as for ACTGTACA, 0.223 E-score.
